In patent US9879008B2, “2,3,4,6-tetra-substituted benzene-1,5-diamine derivatives, preparation method therefor and medicinal use thereof” (SHANGHAI HAIYAN PHARMACEUTICAL TECHNOLOGY CO., LTD., priority 2014, dated 2018):

What was measured:
[1] = target: T1, EGFR T790M/L858R double mutant EGFR kinase (Homo sapiens, UniProt P00533, L858R/T790M); details: ratio of enzyme IC50 values
[2] = target: T1, EGFR T790M/L858R double mutant EGFR kinase; assay: biochemical

Which “Selective inhibitory activity against enzyme [IC50(EGFR WT)/IC50(T790M/L858R)]” value (from here on “Selective inhibitory activity”) [1] does the source give for `C=CC(=O)Nc1cc(Nc2ncc(Cl)c(OC3CCCN(S(C)(=O)=O)CC3)n2)c(OC)cc1N(C)CCN(C)C` (centres unmarked) [Compound J-1, N-(5-(5-chloro-4-(1-(methylsulfonyl)azacycloheptane-4-oxy)pyrimidine-2-amino)-2-((2-(dimethylamino)ethyl)(methyl)amino)-4-methoxylphenyl)acrylamide] here?
Its value is 6.7.

What about the IC50 [2] of the same compound?
The IC50 was 3 nM.

What does the source list for `C=CC(=O)Nc1cc(Nc2nccc(OC3CCN(C(=O)OC(C)(C)C)CC3)n2)c(OC)cc1N1CCC(N(C)C)CC1` [Compound J-2, tert-butyl 4-(2-(5-acrylamido-4-(4-(dimethylamino)piperidine-1-yl)-2-methoxyphenylamino)pyrimidine-4-oxy)piperidine-1-formate]?
Selective inhibitory activity against enzyme [IC50(EGFR WT)/IC50(T790M/L858R)] [1]: 2.3; IC50 [2]: 66 nM

Which results are given for `C=CC(=O)Nc1cc(Nc2ncc(Cl)c(OC3CCN(S(C)(=O)=O)CC3)n2)c(OC)cc1N(C)CCN(C)C` [Compound J-3, N-(5-(5-chloro-4-(1-(methylsulfonyl)piperidine-4-oxy)pyrimidine-2-amino)-2-((2-(dimethylamino)ethyl)(methyl)amino)-4-methoxylphenyl) acrylamide]?
Selective inhibitory activity against enzyme [IC50(EGFR WT)/IC50(T790M/L858R)] [1]: 4.2; IC50 [2]: 9 nM

With `C=CC(=O)Nc1cc(Nc2nccc(OC3CCN(S(C)(=O)=O)CC3)n2)c(OC)cc1N(C)CCN(C)C` [Compound J-4, N-(2-((2-(dimethylamino)ethyl)(methyl)amino)-4-methoxy-5-(4-(1-(methylsulfonyl)piperidine-4-oxy)pyrimidine-2-amino)phenyl) acrylamide] as the compound, how does the “Selective inhibitory activity” value [1] read?
Its value is 1.53.

And the IC50 [2]?
Its IC50 is 34 nM.

With `C=CC(=O)Nc1cc(Nc2nccc(OC3CCN(S(C)(=O)=O)CC3)n2)c(OC)cc1N1CCC(N(C)C)CC1` [Compound J-5, N-(2-(4-(dimethylamino)piperidine-1-yl)-4-methoxy-5-(4-(1-(methylsulfonyl)piperidine-4-oxy)pyrimidine-2-amino)phenyl)acrylamide] as the compound, how does the “Selective inhibitory activity” value [1] read?
The value was 2.04.

What about the IC50 [2] of the same compound?
The IC50 was 25 nM.

For `C=CC(=O)Nc1cc(Nc2nccc(OC3CN(S(=O)(=O)c4ccccc4)C3)n2)c(OC)cc1N1CCC(N(C)C)CC1` [Compound J-9, N-(2-(4-(dimethylamino)piperidine-1-yl)-4-methoxy-5-(4-(1-(phenylsulfonyl)azetidine-3-oxy)pyrimidino)phenyl)acrylamide], which “Selective inhibitory activity” value [1] is on record?
The value was 1.8.

And the IC50 [2]?
The IC50 was 40 nM.

How did the “Selective inhibitory activity” value [1] turn out when `C=CC(=O)Nc1cc(Nc2ncc(Cl)c(OC3CN(S(C)(=O)=O)C3)n2)c(OC)cc1N(C)CCN(C)C` [Compound J-11, N-(5-(5-chloro-4-(1-(methylsulfonyl)azetidine-3-oxy)pyrimidine-2amino)-2-((2-(dimethylamino)ethyl)(methyl)amino)-4-methoxyphenyl)acrylamide] was run?
The value was 6.

What about the IC50 [2] of the same compound?
Its IC50 is 2 nM.

For `C=CC(=O)Nc1cc(Nc2ncc(Cl)c(SC3CN(S(C)(=O)=O)C3)n2)c(OC)cc1N1CCC(N(C)C)CC1` [Compound J-13, N-(5-(5-chloro-4-(1-(methylsulfonyl)azetidine-3-thio)pyrimidine-2-amino)-2-(4-(dimethylamino)piperidine-1-yl)-4-methoxylphenyl)acrylamide], which “Selective inhibitory activity” value [1] is on record?
Its value is greater than 32.

What about the IC50 [2] of the same compound?
The IC50 was less than 0.5 nM.

For `C=CC(=O)Nc1cc(Nc2nccc(OC3CN(c4cccnc4)C3)n2)c(OC)cc1N(C)CCN(C)C` [Compound J-17], which “Selective inhibitory activity” value [1] is on record?
The value was 1.3.

And the IC50 [2]?
The IC50 was 6 nM.

With `C=CC(=O)Nc1cc(Nc2nccc(OC3CN(c4cnc5c(ccn5C)c4)C3)n2)c(OC)cc1N1CCC(N(C)C)CC1` [Compound J-18] as the compound, how does the “Selective inhibitory activity” value [1] read?
Its value is 1.03.

And the IC50 [2]?
Its IC50 is 29 nM.

`C=CC(=O)Nc1cc(Nc2nccc(OC3CN(C(C)=O)C3)n2)c(OC)cc1N1CCC(N(C)C)CC1` [Compound J-20] was tested. Which “Selective inhibitory activity” value [1] did it give?
The value was 2.2.

And the IC50 [2]?
The IC50 was 31 nM.

Which results are given for `C=CC(=O)Nc1cc(Nc2nccc(OC3CN(C(C)=O)C3)n2)c(OC)cc1N(C)CCN(C)C` [Compound J-23]?
Selective inhibitory activity against enzyme [IC50(EGFR WT)/IC50(T790M/L858R)] [1]: 2.1; IC50 [2]: 15 nM

Which results are given for `C=CC(=O)Nc1cc(Nc2nccc(OC3CN(C(=O)c4ccc(C)cc4)C3)n2)c(OC)cc1N1CCC(N(C)C)CC1` [Compound J-24]?
Selective inhibitory activity against enzyme [IC50(EGFR WT)/IC50(T790M/L858R)] [1]: 2.4; IC50 [2]: 50 nM

What does the source list for `C=CC(=O)Nc1cc(Nc2ncc(Cl)c(OC3CN(C(C)=O)C3)n2)c(OC)cc1N1CCC(N(C)C)CC1` [Compound J-27]?
Selective inhibitory activity against enzyme [IC50(EGFR WT)/IC50(T790M/L858R)] [1]: 12.7; IC50 [2]: 9 nM

Which “Selective inhibitory activity” value [1] does the source give for `C=CC(=O)Nc1cc(Nc2ncc(Cl)c(OC3CN(C(C)=O)C3)n2)c(OC)cc1N(C)CCN(C)C` [Compound J-28] here?
The value was 16.3.

And the IC50 [2]?
The IC50 was 3 nM.

`C=CC(=O)Nc1cc(Nc2ncc(F)c(OC3CN(S(C)(=O)=O)C3)n2)c(OC)cc1N1CCC(N(C)C)CC1` [Compound J-29] was tested. Which “Selective inhibitory activity” value [1] did it give?
The value was 6.

What about the IC50 [2] of the same compound?
Its IC50 is 1 nM.

What does the source list for `C=CC(=O)Nc1cc(Nc2ncc(F)c(OC3CN(C(C)=O)C3)n2)c(OC)cc1N1CCC(N(C)C)CC1` [Compound J-30]?
Selective inhibitory activity against enzyme [IC50(EGFR WT)/IC50(T790M/L858R)] [1]: 4.3; IC50 [2]: 22 nM

Which “Selective inhibitory activity” value [1] does the source give for `C=CC(=O)Nc1cc(Nc2ncc(C(F)(F)F)c(OC3CN(S(C)(=O)=O)C3)n2)c(OC)cc1N1CCC(N(C)C)CC1` [Compound J-31] here?
Its value is 13.5.

And the IC50 [2]?
Its IC50 is 2 nM.

With `C=CC(=O)Nc1cc(Nc2ncc(C#N)c(OC3CN(S(C)(=O)=O)C3)n2)c(OC)cc1N1CCC(N(C)C)CC1` [Compound J-32] as the compound, how does the “Selective inhibitory activity” value [1] read?
Its value is 1.8.

What about the IC50 [2] of the same compound?
The IC50 was 6 nM.

Which “Selective inhibitory activity” value [1] does the source give for `C=CC(=O)Nc1cc(Nc2ncc(Cl)c(OCC3CN(C(C)=O)C3)n2)c(OC)cc1N1CCC(N(C)C)CC1` [Compound J-33] here?
The value was 10.9.

And the IC50 [2]?
The IC50 was 55 nM.

Which “Selective inhibitory activity” value [1] does the source give for `C=CC(=O)Nc1cc(Nc2ncc(Cl)c(OCC3CN(S(C)(=O)=O)C3)n2)c(OC)cc1N1CCC(N(C)C)CC1` [Compound J-34] here?
The value was 10.3.

And the IC50 [2]?
Its IC50 is 11 nM.

Which “Selective inhibitory activity” value [1] does the source give for `C=CC(=O)Nc1cc(Nc2ncc(Cl)c(OC3CCCN(C(C)=O)CC3)n2)c(OC)cc1N1CCC(N(C)C)CC1` (centres unmarked) [Compound J-35] here?
Its value is 11.4.

And the IC50 [2]?
Its IC50 is 7 nM.

What does the source list for `C=CC(=O)Nc1cc(Nc2nccc(OC3CCCN(S(C)(=O)=O)CC3)n2)c(OC)cc1N(C)CCN(C)C` (centres unmarked) [Compound J-36]?
Selective inhibitory activity against enzyme [IC50(EGFR WT)/IC50(T790M/L858R)] [1]: 1.55; IC50 [2]: 11 nM

How did the “Selective inhibitory activity” value [1] turn out when `C=CC(=O)Nc1cc(Nc2ncc(Cl)c(OC3CCCN(S(C)(=O)=O)CC3)n2)c(OC)cc1N1CCC(N(C)C)CC1` (centres unmarked) [Compound J-37] was run?
Its value is 11.

And the IC50 [2]?
The IC50 was 2 nM.

`C=CC(=O)Nc1cc(Nc2ncc(Cl)c(OC3CCN(C(C)=O)CC3)n2)c(OC)cc1N1CCC(N(C)C)CC1` [Compound J-38] was tested. Which “Selective inhibitory activity” value [1] did it give?
Its value is 13.1.

What about the IC50 [2] of the same compound?
Its IC50 is 13 nM.

Which “Selective inhibitory activity” value [1] does the source give for `C=CC(=O)Nc1cc(Nc2ncc(Cl)c(OC3CCN(S(C)(=O)=O)CC3)n2)c(OC)cc1N1CCC(N(C)C)CC1` [Compound J-39] here?
Its value is 13.

And the IC50 [2]?
Its IC50 is 3 nM.

`C=CC(=O)Nc1cc(Nc2ncc(Cl)c(O[C@@H]3CCCN(S(C)(=O)=O)C3)n2)c(OC)cc1N(C)CCN(C)C` [Compound J-40, (R)—N-(5-(5-chloro-4-(1-(methylsulfonyl)piperidine-3-oxy)pyrimidine-2-amino)-2-((2-(dimethylamino)ethyl)(methyl)amino)-4-methoxyphenyl)acrylamide] was tested. Which “Selective inhibitory activity” value [1] did it give?
The value was 5.9.

And the IC50 [2]?
Its IC50 is 8 nM.

How did the “Selective inhibitory activity” value [1] turn out when `C=CC(=O)Nc1cc(Nc2ncc(Cl)c(O[C@@H]3CCN(S(C)(=O)=O)C3)n2)c(OC)cc1N1CCC(N(C)C)CC1` [Compound J-45, (R)—N-(5-(5-chloro-4-(1-(methylsulfonyl)pyrrolidine-3-oxy)pyrimidine-2-amino)-2-(4-(dimethylamino)piperidine-1-yl)-4-methoxyphenyl)acrylamide] was run?
The value was 13.7.

And the IC50 [2]?
Its IC50 is 3 nM.

What does the source list for `C=CC(=O)Nc1cc(Nc2ncc(Cl)c(O[C@H]3CCN(S(C)(=O)=O)C3)n2)c(OC)cc1N1CCC(N(C)C)CC1` [Compound J-46]?
Selective inhibitory activity against enzyme [IC50(EGFR WT)/IC50(T790M/L858R)] [1]: 16.3; IC50 [2]: 3 nM

What does the source list for `C=CC(=O)Nc1cc(Nc2ncc(Cl)c(O[C@@H]3CCN(C(C)=O)C3)n2)c(OC)cc1N1CCC(N(C)C)CC1` [Compound J-47]?
Selective inhibitory activity against enzyme [IC50(EGFR WT)/IC50(T790M/L858R)] [1]: 13.3; IC50 [2]: 17 nM

`C=CC(=O)Nc1cc(Nc2ncc(Cl)c(O[C@H]3CCN(C(C)=O)C3)n2)c(OC)cc1N1CCC(N(C)C)CC1` [Compound J-48] was tested. Which “Selective inhibitory activity” value [1] did it give?
Its value is 15.6.

And the IC50 [2]?
The IC50 was 39 nM.

Which results are given for `C=CC(=O)Nc1cc(Nc2ncc(F)c(O[C@@H]3CCN(C(C)=O)C3)n2)c(OC)cc1N1CCC(N(C)C)CC1` [Compound J-49]?
Selective inhibitory activity against enzyme [IC50(EGFR WT)/IC50(T790M/L858R)] [1]: 4.2; IC50 [2]: 61 nM

Which “Selective inhibitory activity” value [1] does the source give for `C=CC(=O)Nc1cc(Nc2ncc(F)c(O[C@@H]3CCN(S(C)(=O)=O)C3)n2)c(OC)cc1N1CCC(N(C)C)CC1` [Compound J-51] here?
The value was 4.3.

And the IC50 [2]?
The IC50 was 6 nM.

What does the source list for `C=CC(=O)Nc1cc(Nc2ncc(F)c(O[C@H]3CCN(S(C)(=O)=O)C3)n2)c(OC)cc1N1CCC(N(C)C)CC1` [Compound J-52]?
Selective inhibitory activity against enzyme [IC50(EGFR WT)/IC50(T790M/L858R)] [1]: 6; IC50 [2]: 8 nM

Which “Selective inhibitory activity” value [1] does the source give for `C=CC(=O)Nc1cc(Nc2ncc(Cl)c(OC3CN(CCF)C3)n2)c(OC)cc1N1CCC(N(C)C)CC1` [Compound J-54] here?
Its value is 10.4.

And the IC50 [2]?
Its IC50 is 36 nM.

What does the source list for `C=CC(=O)Nc1cc(Nc2ncc(F)c(SC3CN(S(C)(=O)=O)C3)n2)c(OC)cc1N1CCC(N(C)C)CC1` [Compound J-57]?
Selective inhibitory activity against enzyme [IC50(EGFR WT)/IC50(T790M/L858R)] [1]: 4; IC50 [2]: 1 nM

What does the source list for `C=CC(=O)Nc1cc(Nc2ncc(F)c(SC3CN(C(C)=O)C3)n2)c(OC)cc1N1CCC(N(C)C)CC1` [Compound J-58]?
Selective inhibitory activity against enzyme [IC50(EGFR WT)/IC50(T790M/L858R)] [1]: 5.3; IC50 [2]: 13 nM
